About 2,200 (0.71%) of roughly 310,000 compounds showed an effect of 50% or more. The effect is printed as a negative number. Some of the results follow. Where a SMILES comes first, the peptide text is derived from it.
These compounds were tested against human ether-à-go-go-related gene (hERG) potassium channel (human, UniProt Q12809) (assay: primary screen, population patch clamp on CHO cells stably expressing hERG).
human ether-à-go-go-related gene (hERG) potassium channel, sequence (Q12809 whole entry, looked up): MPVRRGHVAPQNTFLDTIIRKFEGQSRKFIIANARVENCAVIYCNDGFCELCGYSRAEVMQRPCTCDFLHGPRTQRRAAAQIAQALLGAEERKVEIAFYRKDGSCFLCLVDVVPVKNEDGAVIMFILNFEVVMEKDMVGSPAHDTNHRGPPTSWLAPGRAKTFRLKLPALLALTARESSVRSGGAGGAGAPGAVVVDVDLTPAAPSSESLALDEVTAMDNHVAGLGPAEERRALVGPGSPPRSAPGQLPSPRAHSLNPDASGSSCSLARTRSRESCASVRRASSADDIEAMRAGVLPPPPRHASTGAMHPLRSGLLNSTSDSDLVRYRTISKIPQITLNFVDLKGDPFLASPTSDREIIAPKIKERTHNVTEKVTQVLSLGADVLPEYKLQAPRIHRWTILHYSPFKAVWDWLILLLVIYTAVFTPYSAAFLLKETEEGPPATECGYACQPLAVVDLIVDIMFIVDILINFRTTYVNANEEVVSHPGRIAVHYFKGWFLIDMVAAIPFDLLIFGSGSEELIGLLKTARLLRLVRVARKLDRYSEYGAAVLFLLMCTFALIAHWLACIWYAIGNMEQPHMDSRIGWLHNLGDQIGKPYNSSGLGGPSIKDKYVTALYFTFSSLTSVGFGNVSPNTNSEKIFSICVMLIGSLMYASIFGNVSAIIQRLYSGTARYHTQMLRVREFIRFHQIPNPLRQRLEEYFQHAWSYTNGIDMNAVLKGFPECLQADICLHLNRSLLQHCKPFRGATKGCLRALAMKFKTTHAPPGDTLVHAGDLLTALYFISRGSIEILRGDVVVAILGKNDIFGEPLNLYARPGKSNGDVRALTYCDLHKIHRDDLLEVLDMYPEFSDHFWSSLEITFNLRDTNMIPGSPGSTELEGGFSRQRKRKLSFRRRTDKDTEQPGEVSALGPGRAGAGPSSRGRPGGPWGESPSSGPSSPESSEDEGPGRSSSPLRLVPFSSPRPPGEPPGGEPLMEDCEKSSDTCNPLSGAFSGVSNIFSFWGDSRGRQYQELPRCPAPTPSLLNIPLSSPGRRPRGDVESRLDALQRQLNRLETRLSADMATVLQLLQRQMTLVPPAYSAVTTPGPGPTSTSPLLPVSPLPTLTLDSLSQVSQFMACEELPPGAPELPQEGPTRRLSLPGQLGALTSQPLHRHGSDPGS
For `O=c1c2ccccc2nc2n1C(CSCc1ccc(Cl)cc1Cl)CS2` (stereo not drawn), the “hERG current change (%, negative = inhibition) at 1uM” value was -3.12%. `CC(=O)Nc1ccc(S(=O)(=O)NCC(=O)NNC(=O)c2csc(N3CCOCC3)n2)cc1` was tested, and the “hERG current change (%, negative = inhibition) at 1uM” value was -0.0046%. With `Cc1nn(C(=O)c2ccco2)c(C)c1Br` the “hERG current change (%, negative = inhibition) at 1uM” value was 12%. In the case of `O=S(=O)(c1cccs1)N1CN(Cc2ccc(Cl)cc2)c2nc3ccccc3nc21`, the “hERG current change (%, negative = inhibition) at 1uM” value is reported as 9.87%. `CC1Cc2ccccc2N1C(=O)Cn1c(=O)cc(O)c2ccccc21` (stereo not drawn) was tested, and the “hERG current change (%, negative = inhibition) at 1uM” value was 15.8%. With `CCc1cccc(CC)c1NC(=O)COC(=O)c1cccc(-c2ccc(OC(C)=O)cc2)c1` the “hERG current change (%, negative = inhibition) at 1uM” value was 6.01%. `COc1ccc(Cl)cc1NC(=O)C(OC)c1ccccc1` (stereo not drawn) was tested, and the “hERG current change (%, negative = inhibition) at 1uM” value was 7.59%. For `COC(=O)C1=C(c2ccc(Cl)c(C(F)(F)F)c2)C[C@@H]2CC[C@H]1N2C(=O)NCCNC(C)=O`, the “hERG current change (%, negative = inhibition) at 1uM” value was 11%. `COc1ccc(CN(C)C(=O)c2ccc(NS(=O)(=O)c3ccc(C)c([N+](=O)[O-])c3)cc2)c(OC)c1OC` was tested, and the “hERG current change (%, negative = inhibition) at 1uM” value was -9.17%. In the case of `O=C(Cn1cnc2cc([N+](=O)[O-])ccc2c1=O)N(Cc1ccccc1)C1CCS(=O)(=O)C1` (stereo not drawn), the “hERG current change (%, negative = inhibition) at 1uM” value is reported as 6.43%. For `NS(=O)(=O)c1ccc(NC(=O)CSc2n[nH]c(=O)n2C2CC2)cc1`, the “hERG current change (%, negative = inhibition) at 1uM” value was 12.1%. `COc1cc(/C=C2/C(=O)ON=C2c2ccccc2)ccc1O` was tested, and the “hERG current change (%, negative = inhibition) at 1uM” value was 7.89%. With `CC(Sc1nc2ccc(Br)cc2[nH]1)C(=O)O` (stereo not drawn) the “hERG current change (%, negative = inhibition) at 1uM” value was -11.3%. For `O=C(NCc1ccco1)C(c1ccccc1F)N(Cc1cccnc1)C(=O)Cn1nnc2ccccc21` (stereo not drawn), the “hERG current change (%, negative = inhibition) at 1uM” value was -13.2%. `C/C(=N\NC(=O)c1c(Br)cnn1C)c1ccc(NC(=O)c2ccc(F)cc2)cc1` was tested, and the “hERG current change (%, negative = inhibition) at 1uM” value was 5.71%. `COc1cccc(C2c3c(oc4ccccc4c3=O)C(=O)N2Cc2ccco2)c1` (stereo not drawn) was tested, and the “hERG current change (%, negative = inhibition) at 1uM” value was 0.412%. With `Cc1nc2ccc(F)cc2cc1C(=O)NCc1ccco1` the “hERG current change (%, negative = inhibition) at 1uM” value was 6.42%. With `CCN(CC)S(=O)(=O)c1ccc(S(=O)(=O)N2CCCC(C(=O)NC3CC3)C2)cc1` (stereo not drawn) the “hERG current change (%, negative = inhibition) at 1uM” value was 11%. With `COc1ccc(CCNC(=O)c2ccc(SC)cc2OC)cc1` the “hERG current change (%, negative = inhibition) at 1uM” value was 3.79%. For `CC1CCCCN1S(=O)(=O)c1csc(C(N)=O)c1` (stereo not drawn), the “hERG current change (%, negative = inhibition) at 1uM” value was 4.46%. In the case of `CCCCn1c(SCC2CCCCO2)nc2cc(S(N)(=O)=O)ccc21` (stereo not drawn), the “hERG current change (%, negative = inhibition) at 1uM” value is reported as -9.18%. For `N#CCCN(C(=O)COC(=O)CNC(=O)c1ccc(-c2ccccc2)cc1)c1ccc(F)cc1`, the “hERG current change (%, negative = inhibition) at 1uM” value was 6.76%. In the case of `CC(C)NC(C)C(=O)C12CC3CC(CC(C3)C1)C2.Cl` (stereo not drawn), the “hERG current change (%, negative = inhibition) at 1uM” value is reported as 9%. `CC(=O)c1ccc(NC(=O)Nc2ccc(NS(=O)(=O)c3ccc(C)cc3)cc2)cc1` was tested, and the “hERG current change (%, negative = inhibition) at 1uM” value was 7.59%. For `Cl.c1ccc(-c2nnc(CN3CCCCC3)o2)cc1`, the “hERG current change (%, negative = inhibition) at 1uM” value was 15.7%. In the case of `COc1cccc(NC(=O)Cn2c(SCC(=O)N3CCOCC3)nc3ccccc32)c1`, the “hERG current change (%, negative = inhibition) at 1uM” value is reported as 8.73%. For `COc1cc([N+](=O)[O-])c(OC)cc1SCc1n[nH]c(=S)n1-c1ccc(C)cc1`, the “hERG current change (%, negative = inhibition) at 1uM” value was 11.8%. `CN(Cc1nc(Cc2cccc(C(F)(F)F)c2)no1)C1CC(C)(C)NC(C)(C)C1` was tested, and the “hERG current change (%, negative = inhibition) at 1uM” value was -10.6%. In the case of `Cc1ccc(NCC(O)Cn2cnc3c2c(=O)n(C)c(=O)n3C)cc1` (stereo not drawn), the “hERG current change (%, negative = inhibition) at 1uM” value is reported as -9.37%. In the case of `O=C(NCCNC(=O)c1cnccn1)c1cccc(Cl)c1`, the “hERG current change (%, negative = inhibition) at 1uM” value is reported as 12.4%. For `N#Cc1nc(COc2cccc(Cl)c2)oc1NCCN1CCOCC1`, the “hERG current change (%, negative = inhibition) at 1uM” value was -22.3%. For `Cc1ccc([N+](=O)[O-])c(OCCN2CCNCC2)c1.O=C(O)C(=O)O`, the “hERG current change (%, negative = inhibition) at 1uM” value was 7.74%. For `COc1ccc(NC(=O)COC(=O)CCCc2c[nH]c3ccccc23)cc1OC`, the “hERG current change (%, negative = inhibition) at 1uM” value was 3.15%. For `CCCCCO`, the “hERG current change (%, negative = inhibition) at 1uM” value was 12.6%. With `Cc1ccc(CNC(=O)CCS(=O)(=O)c2cccc3nsnc23)cc1` the “hERG current change (%, negative = inhibition) at 1uM” value was 11.7%. `CC1CCCCN1C(=O)C12CCC(C)(C(=O)C1)C2(C)C` (stereo not drawn) was tested, and the “hERG current change (%, negative = inhibition) at 1uM” value was 1.12%. `Cc1ccccc1NC(=O)CS(=O)(=O)c1cn(CC(=O)N2CCOCC2)c2ccccc12` was tested, and the “hERG current change (%, negative = inhibition) at 1uM” value was 6.26%. With `O=C(NCC1CCCO1)C(c1cccs1)N(C(=O)Cn1nnc(-c2cccs2)n1)C1CCCC1` (stereo not drawn) the “hERG current change (%, negative = inhibition) at 1uM” value was -4.19%. With `CN(C)C(=O)Cn1c(SCC(=O)NCc2ccc3c(c2)OCO3)nc2ccccc21` the “hERG current change (%, negative = inhibition) at 1uM” value was 11%. `COc1cc(/C=C/c2[nH]c(=O)[nH]c(=O)c2[N+](=O)[O-])cc(OC)c1O` was tested, and the “hERG current change (%, negative = inhibition) at 1uM” value was 14.8%. With `O=C(NC1CCCC1)c1cc(-c2ccccc2)nc2ccccc12` the “hERG current change (%, negative = inhibition) at 1uM” value was 20.4%. In the case of `Cc1nc(NC(=O)/C=C/c2ccc(F)cc2)sc1C(=O)N(C)C`, the “hERG current change (%, negative = inhibition) at 1uM” value is reported as 3.54%. For `O=C1NC(=O)/C(=C\c2ccc(N3CCOCC3)o2)N1`, the “hERG current change (%, negative = inhibition) at 1uM” value was 7.43%. For `Cc1ccccc1OCC(=O)Nc1nnc(C2CCCC2)s1`, the “hERG current change (%, negative = inhibition) at 1uM” value was 13.6%. With `Cc1ccc2nc(SCc3nc4c(cnn4-c4ccccc4)c(=O)[nH]3)[nH]c2c1` the “hERG current change (%, negative = inhibition) at 1uM” value was 17.3%. In the case of `Cc1cc(/C(N)=N/OC(=O)Nc2ccccc2)no1`, the “hERG current change (%, negative = inhibition) at 1uM” value is reported as 0.305%. With `Cc1ccc(NC(=O)Cn2cc(C=O)c3ccccc32)cc1` the “hERG current change (%, negative = inhibition) at 1uM” value was 8.4%. `COc1cccc(/C=N/NC(=O)C(C)n2nnc3ccccc32)c1` (stereo not drawn) was tested, and the “hERG current change (%, negative = inhibition) at 1uM” value was 12.2%. `CC(=O)NC(Cc1ccccc1)C(=O)NC(Cc1ccccc1)C(=O)O` (stereo not drawn) (Ac-Phe-Phe-OH; configuration not given here) was tested, and the “hERG current change (%, negative = inhibition) at 1uM” value was 14.4%. For `CCS(=O)(=O)c1ccc2oc(SCC(=O)c3c(N)n(C4CC4)c(=O)[nH]c3=O)nc2c1`, the “hERG current change (%, negative = inhibition) at 1uM” value was 21.8%. `C[C@]12C=CC(=O)C=C1CC[C@@H]1[C@@H]2[C@@H](O)C[C@@]2(C)[C@H]1CC[C@]2(O)C(=O)COC(=O)CCC(=O)NCCc1ccc(O)cc1` was tested, and the “hERG current change (%, negative = inhibition) at 1uM” value was 5.79%. For `O=C(NC(=S)Nc1ccccc1N1CCOCC1)c1sc2ccccc2c1Cl`, the “hERG current change (%, negative = inhibition) at 1uM” value was 2.57%. `O=C(NC(=S)Nc1nc(-c2ccc(Cl)cc2)cs1)c1cccs1` was tested, and the “hERG current change (%, negative = inhibition) at 1uM” value was 16.4%. `Cc1ccc2c(c1)C1C=CCC1C(C(=O)NCCCN1CCOCC1)N2` (stereo not drawn) was tested, and the “hERG current change (%, negative = inhibition) at 1uM” value was 1.82%.
